Experimental data as given in the supplement of paper PMC8728848.
This is one part of the list.

Key:
Experiment in all cases: glycan array binding signal (z-score within array); higher = stronger binding
Conditions in all cases: glycan notation: IUPAC condensed, linker removed
[1] = biological target: GlcNAc(b1-3)Gal(b1-4)GlcNAc
Outline: (§1)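 Arrays were curated from the Consortium for Functional Glycomics database, 3228 in total, and kept only where the protein sequence was available. Binding is expressed as a within-array Z-score. This score was averaged across arrays of the same protein sequence at different concentrations or buffers and across linkers, and negative values can be read as non-binding.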

[2] = biological target: GlcNAc(b1-3)Gal(b1-4)GlcNAc(b1-2)Man(a1-3)[GlcNAc(b1-3)Gal(b1-4)GlcNAc(b1-2)Man(a1-6)]Man(b1-4)GlcNAc(b1-4)GlcNAc
Outline: as §1

[3] = biological target: GlcNAc(b1-3)Gal(b1-4)GlcNAc(b1-2)Man(a1-3)[GlcNAc(b1-3)Gal(b1-4)GlcNAc(b1-2)Man(a1-6)]Man(b1-4)GlcNAc(b1-4)[Fuc(a1-6)]GlcNAc
Outline: as §1

[4] = biological target: GlcNAc(b1-3)Gal(b1-4)GlcNAc(b1-2)[GlcNAc(b1-3)Gal(b1-4)GlcNAc(b1-6)]Man(a1-6)[GlcNAc(b1-3)Gal(b1-4)GlcNAc(b1-2)Man(a1-3)]Man(b1-4)GlcNAc(b1-4)GlcNAc
Outline: as §1

[5] = biological target: GlcNAc(b1-3)Gal(b1-4)GlcNAc(b1-3)Gal(b1-4)GlcNAc
Outline: as §1

[6] = biological target: GlcNAc(b1-3)Gal(b1-4)GlcNAc(b1-3)Gal(b1-4)GlcNAc(b1-2)Man(a1-3)[GlcNAc(b1-3)Gal(b1-4)GlcNAc(b1-3)Gal(b1-4)GlcNAc(b1-2)Man(a1-6)]Man(b1-4)GlcNAc(b1-4)GlcNAc
Outline: as §1

[7] = biological target: GlcNAc(b1-3)Gal(b1-4)GlcNAc(b1-3)Gal(b1-4)GlcNAc(b1-2)Man(a1-3)[GlcNAc(b1-3)Gal(b1-4)GlcNAc(b1-3)Gal(b1-4)GlcNAc(b1-2)Man(a1-6)]Man(b1-4)GlcNAc(b1-4)[Fuc(a1-6)]GlcNAc
Outline: as §1

[8] = biological target: GlcNAc(b1-3)Gal(b1-4)GlcNAc(b1-3)Gal(b1-4)GlcNAc(b1-2)[GlcNAc(b1-3)Gal(b1-4)GlcNAc(b1-3)Gal(b1-4)GlcNAc(b1-6)]Man(a1-6)[GlcNAc(b1-3)Gal(b1-4)GlcNAc(b1-3)Gal(b1-4)GlcNAc(b1-2)Man(a1-3)]Man(b1-4)GlcNAc(b1-4)[Fuc(a1-6)]GlcNAc
Outline: as §1

[9] = biological target: GlcNAc(b1-3)Gal(b1-4)GlcNAc(b1-3)Gal(b1-4)GlcNAc(b1-3)Gal(b1-4)GlcNAc(b1-2)Man(a1-3)[GlcNAc(b1-3)Gal(b1-4)GlcNAc(b1-3)Gal(b1-4)GlcNAc(b1-3)Gal(b1-4)GlcNAc(b1-2)Man(a1-6)]Man(b1-4)GlcNAc(b1-4)GlcNAc
Outline: as §1

[10] = biological target: GlcNAc(b1-3)Gal(b1-4)GlcNAc(b1-3)Gal(b1-4)GlcNAc(b1-3)Gal(b1-4)GlcNAc(b1-2)Man(a1-3)[GlcNAc(b1-3)Gal(b1-4)GlcNAc(b1-3)Gal(b1-4)GlcNAc(b1-3)Gal(b1-4)GlcNAc(b1-2)Man(a1-6)]Man(b1-4)GlcNAc(b1-4)[Fuc(a1-6)]GlcNAc
Outline: as §1

[11] = biological target: GlcNAc(b1-3)Gal(b1-4)GlcNAc(b1-3)Gal(b1-4)GlcNAc(b1-3)Gal(b1-4)GlcNAc(b1-2)[GlcNAc(b1-3)Gal(b1-4)GlcNAc(b1-3)Gal(b1-4)GlcNAc(b1-3)Gal(b1-4)GlcNAc(b1-6)]Man(a1-6)[GlcNAc(b1-3)Gal(b1-4)GlcNAc(b1-3)Gal(b1-4)GlcNAc(b1-3)Gal(b1-4)GlcNAc(b1-2)Man(a1-3)]Man(b1-4)GlcNAc(b1-4)[Fuc(a1-6)]GlcNAc
Outline: as §1

[12] = biological target: GlcNAc(b1-3)Gal(b1-4)GlcNAc(b1-3)Gal(b1-4)GlcNAc(b1-3)Gal(b1-4)GlcNAc(b1-3)Gal(b1-4)GlcNAc(b1-2)Man(a1-3)[GlcNAc(b1-3)Gal(b1-4)GlcNAc(b1-3)Gal(b1-4)GlcNAc(b1-3)Gal(b1-4)GlcNAc(b1-3)Gal(b1-4)GlcNAc(b1-2)Man(a1-6)]Man(b1-4)GlcNAc(b1-4)GlcNAc
Outline: as §1

[13] = biological target: GlcNAc(b1-3)Gal(b1-4)GlcNAc(b1-3)Gal(b1-4)GlcNAc(b1-3)Gal(b1-4)GlcNAc(b1-3)Gal(b1-4)GlcNAc(b1-2)Man(a1-3)[GlcNAc(b1-3)Gal(b1-4)GlcNAc(b1-3)Gal(b1-4)GlcNAc(b1-3)Gal(b1-4)GlcNAc(b1-3)Gal(b1-4)GlcNAc(b1-2)Man(a1-6)]Man(b1-4)GlcNAc(b1-4)[Fuc(a1-6)]GlcNAc
Outline: as §1

[14] = biological target: GlcNAc(b1-3)Gal(b1-4)GlcNAc(b1-3)Gal(b1-4)GlcNAc(b1-3)Gal(b1-4)GlcNAc(b1-3)Gal(b1-4)GlcNAc(b1-2)[GlcNAc(b1-3)Gal(b1-4)GlcNAc(b1-3)Gal(b1-4)GlcNAc(b1-3)Gal(b1-4)GlcNAc(b1-3)Gal(b1-4)GlcNAc(b1-6)]Man(a1-6)[GlcNAc(b1-3)Gal(b1-4)GlcNAc(b1-3)Gal(b1-4)GlcNAc(b1-3)Gal(b1-4)GlcNAc(b1-3)Gal(b1-4)GlcNAc(b1-2)Man(a1-3)]Man(b1-4)GlcNAc(b1-4)[Fuc(a1-6)]GlcNAc
Outline: as §1

[15] = biological target: GlcNAc(b1-3)Gal(b1-4)GlcNAc(b1-3)Gal(b1-4)GlcNAc(b1-3)GalNAc
Outline: as §1

[16] = biological target: GlcNAc(b1-3)Gal(b1-4)GlcNAc(b1-3)GalNAc
Outline: as §1

[17] = biological target: GlcNAc(b1-3)Gal(b1-4)GlcNAc(b1-3)[GlcNAc(b1-3)Gal(b1-4)GlcNAc(b1-3)]GalNAc
Outline: as §1

[18] = biological target: GlcNAc(b1-3)Gal(b1-4)GlcNAc(b1-6)[Gal(b1-3)]GalNAc
Outline: as §1

[19] = biological target: GlcNAc(b1-3)Gal(b1-4)GlcNAc(b1-6)[GlcNAc(b1-3)Gal(b1-3)]GalNAc
Outline: as §1

[20] = biological target: GlcNAc(b1-3)Gal(b1-4)GlcNAc(b1-6)[GlcNAc(b1-3)]Gal(b1-4)GlcNAc
Outline: as §1

[21] = biological target: GlcNAc(b1-3)GalNAc
Outline: as §1

[22] = biological target: GlcNAc(b1-3)Man
Outline: as §1

B1: FliD (Clostridium difficile) (protein)
chain: MSSISPVRVTGLSGNFDMEGIIEASMIRDKEKVNKAKQDQQIVKWKQEIYRDIIKESKNLYDKYLNGDSPNSITNKKAYSATRITSSDESIIVAKGSAGAEKINYQFAVSQMAEPAKVTIKLNSSDPIVQQFPPNASGASSLNIGGVNIPISEQDTTSTIVSKINSLCADNDIRASYSEMTGELIISRKQTGSSSDIDLKVIGNDSLAGQIASDNGITFTTDASGTKSAVVYGKNLEADVTDDQGRVTHISKEQNSFKIDNIDYNVNSKGSAKLVSVTDTEEATKNMKAFVDDYNALMDKVYGLVTTKKSKDYPPLTDEQKDDMTTEEIEKWEKKAKEGILRNDDELRAFVEDIQSMFFGDADTIIALRKLGISEHENYNKKGQISFNADTFSKALIDDSDKVYKALAGYSSNYDDKGMFEKLKKIVFEYSGSSASKLTKKAGMENSSSASQNVYSKQIAEQERNISRLVEKMNDKEKRLYAKYSALESLLNKYSSQMNYFSQAQGN
glycan array binding signal (z-score) [1]: -0.247
glycan array binding signal (z-score) [2]: -0.078
glycan array binding signal (z-score) [3]: -0.232
glycan array binding signal (z-score) [4]: 0.02
glycan array binding signal (z-score) [5]: -0.223
glycan array binding signal (z-score) [6]: 0.337
glycan array binding signal (z-score) [7]: -0.112
glycan array binding signal (z-score) [8]: -0.202
glycan array binding signal (z-score) [9]: -0.213
glycan array binding signal (z-score) [10]: -0.116
glycan array binding signal (z-score) [11]: -0.16
glycan array binding signal (z-score) [12]: -0.101
glycan array binding signal (z-score) [13]: -0.211
glycan array binding signal (z-score) [14]: -0.178
glycan array binding signal (z-score) [15]: -0.267
glycan array binding signal (z-score) [16]: -0.132
glycan array binding signal (z-score) [17]: -0.249
glycan array binding signal (z-score) [18]: -0.24
glycan array binding signal (z-score) [19]: -0.192
glycan array binding signal (z-score) [20]: -0.158
glycan array binding signal (z-score) [21]: -0.178
glycan array binding signal (z-score) [22]: -0.129
